Structures are written as SMILES. A value given as a limit tells only on which side of the number the result lay.

For this test, the system named is VRSA HIP14300. Nature of the test: microbe, parasite or virus in culture. The conditions noted are these: Staphylococcus aureus, 20 h.

`CN[C@H](CC(C)C)C(=O)N[C@H]1C(=O)N[C@@H](CC(N)=O)C(=O)N[C@H]2C(=O)N[C@H]3C(=O)N[C@H](C(=O)N[C@H](C(=O)O)c4cc(O)cc(O)c4-c4cc3ccc4O)[C@H](O)c3ccc(c(Cl)c3)Oc3cc2cc(c3O[C@@H]2O[C@H](CO)[C@@H](O)[C@H](O)[C@H]2O[C@H]2C[C@](C)(N)[C@H](O)[C@H](C)O2)Oc2ccc(cc2Cl)[C@H]1O` [vancomycin]: the MIC is > 128 µg/mL.

The record behind these values is publication PMC5893419 (Bioorganic & medicinal chemistry letters, 2018).
